PubChem BioAssay AID686979 (National Center for Advancing Translational Sciences (NCATS), 2013)
Screen size: about 420,000 compounds; about 50,000 (12%) were called active. The shares of active, inactive and inconclusive entries below differ from those in the screen. Calls follow the shape of the dose curve; as a rule, active = well fitted inhibition curve with a large enough effect; inconclusive = small, poorly fitted or top-dose-only effect; inactive = flat fitted curve, though single readings scatter. No potency is given beside an inconclusive call; the fits are too rough.

Assay: qHTS for Inhibitors of human tyrosyl-DNA phosphodiesterase 1 (TDP1): qHTS in cells in presence of CPT; also: nearly all actives have a fitted effect of over 55% in size
Conditions: chicken DT40 Tdp1-/-;hTDP1 cells + 20 nM CPT, ATP luminescence, 48 h; activity change, negative = growth inhibition: at 46.2 µM (top of the series) unless noted
Summary of the method: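 Cell growth measured by CellTiter-Glo luminescence after a minimum 48 h, 37 C compound exposure with 20 nM CPT in Tdp1-knockout DT40 cells stably expressing hTDP1, seeded 400/well; qHTS titration format.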
% is scaled to controls: 0 for no effect and ±100 for the full control effect; potency is read from the fitted curve at half-maximal effect; tags tell the direction and shape of the fitted curve.

Row | Compound | Potency | activity change, negative = growth inhibition
1 | CN(C)Cc1ccccc1C1(O)c2ccccc2CSc2ccccc21 (configuration not stated) | inconclusive [inhibitor, single point] | 
2 | COc1cc(-c2nnc(NC(=O)CCS(=O)(=O)c3ccccc3)o2)cc(OC)c1OC | active: 16.4 µM | 
3 | CC(C)C[C@H]1CN(CCCC[C@@H]2CNC(=O)C(=O)N2CCc2ccccc2)C(=O)C(=O)N1CCC1CCCCC1 | inconclusive [inhibitor, single point] | 
4 | O=c1oc2ccc3ccccc3c2cc1-c1nc2ccccc2o1 | inconclusive [inhibitor, single point] | 
5 | O=C(O)CSc1nc2ccc(Br)cc2[nH]1 |  | inactive: 17.4%
6 | COc1ccc(NC(=O)C2CCN(S(=O)(=O)c3ccc4c(c3)CC(C)N4C(C)=O)CC2)c(OC)c1 (configuration not stated) | inconclusive [inhibitor, single point] | 
7 | O=[N+]([O-])c1sccc1CS(=O)(=O)c1ccccc1 | inconclusive [inhibitor, single point] | 
8 | CC(=O)NC1=NN(C(C)=O)C(C)(CCS(=O)(=O)c2ccc(Cl)c(Cl)c2)S1 (configuration not stated) |  | inactive: 13%
9 | CC(C)C[C@H]1CN([C@@H](Cc2ccc(O)cc2)CN2CCCC2CN2C(=S)NC[C@@H]2Cc2ccccc2)C(=S)N1CC1CCCCC1 (some centres not stated) | active: 16.4 µM | 
10 | Cn1nc(C(C)(C)C)cc1N1C(=O)CCC1(C)C(=O)Nc1ccc2ccccc2c1 (configuration not stated) | inconclusive [inhibitor, single point] | 
11 | CCc1cc(C(=O)N2CCCC(C(=O)c3cccc4ccccc34)C2)n(C)n1 (configuration not stated) | inconclusive [inhibitor, partial curve, poor fit] | 
12 | Cc1ccc(C(=O)COC(=O)CNC(=O)c2ccco2)cc1 |  | inactive: -13.3%
13 | C/C=C(/C)C(=O)O[C@@H]1[C@H](OC(=O)C=C(C)C)c2c(ccc3ccc(=O)oc23)OC1(C)C | inconclusive [inhibitor, single point] | 
14 | CN(C)Cc1c(C(=O)N/N=C/c2cccc(OCc3c(F)cccc3Cl)c2)nnn1-c1nonc1N | active: 9.2 µM | 
15 | COc1ccc(CNS(=O)(=O)c2ccc(N3CCCC3)cc2Br)cc1 | inconclusive [inhibitor, partial curve] | 
16 | COc1cccc(C(C(=O)NC2CCCCC2)N(C(=O)c2cccs2)c2ccc3c(c2)OCO3)c1 (configuration not stated) | inconclusive [inhibitor, single point] | 
17 | COc1ccc(C(=O)C[n+]2ccc(N(C)C)cc2)cc1 | inconclusive [inhibitor, single point] | 
18 | CC1CC(C)CN(C(=O)c2ccc3c(c2)OCCO3)C1 (configuration not stated) | inconclusive [inhibitor, partial curve, poor fit] | 
19 | COc1ccc(-c2csc(=Nc3ccccc3)n2CCO)cc1 | inconclusive [inhibitor, single point] | 
20 | Cc1ccc(O)c(NC(=O)CN(C)S(=O)(=O)c2ccc(Cl)cc2)c1 | inconclusive [inhibitor, single point] | 
21 | Cc1ccc(S(=O)(=O)N2CCCC2C(=O)NCCc2nc3ccccc3[nH]2)cc1 (configuration not stated) | inconclusive [inhibitor, single point] | 

Row | Compound | Potency | activity change, negative = growth inhibition
22 | CN(Cc1ccc(Cl)cc1)C(=O)c1cc(S(=O)(=O)N2CCOCC2)ccc1N1CCCC1 | inconclusive [inhibitor, single point] | 
23 | Cc1ccc(NC(=O)Cn2sc3nc(C)cc(C)c3c2=O)c(Cl)c1 | active: 2.91 µM | 
24 | O=[N+]([O-])c1cccc(COc2ccccc2CN2CCCCC2)c1 | inconclusive [inhibitor, single point] | 
25 | Cc1cc(NC(=O)c2cc([N+](=O)[O-])cc([N+](=O)[O-])c2)no1 | inconclusive [inhibitor, single point] | 
26 | CCN(CCCNC(=O)c1cn(CC)c2ccc(S(=O)(=O)N(C)C)cc2c1=O)c1cccc(C)c1 | inconclusive [inhibitor, single point] | 
27 | COc1ccc(-c2c3c(=O)n(C)c(=O)n(C)c3cn2-c2ccccc2)cc1 | active: 25.9 µM | 
28 | O=C(Cn1cnc2onc(-c3ccc(F)cc3)c2c1=O)N1CCN(c2ccccc2F)CC1 | inconclusive [inhibitor, partial curve] | 
29 | O=C(O)Cc1sc(Nc2ccc(C(=O)O)cc2)nc1-c1ccccc1 |  | inactive: -5.39%
30 | Cc1ccc(-c2nc(S(=O)(=O)c3ccccc3)c(SCC(=O)NCC3CCCO3)o2)cc1 (configuration not stated) | inconclusive [inhibitor, single point] | 
31 | Cc1ccc(-c2nc(C3CCN(S(C)(=O)=O)CC3)no2)cc1 |  | inactive: -26.9%
32 | O=C(COc1ccc(S(=O)(=O)N2CCOCC2)cc1)NCCc1ccc(Cl)cc1 | inconclusive [inhibitor, single point] | 
33 | C=C(C)C1CCC(C)=C1CC(C)(C)/C=N\n1cnnc1 (configuration not stated) | active: 10.3 µM | 
34 | O=C(CCNC(=O)c1ccc(Br)cc1)NC1CCCc2ccccc21 (configuration not stated) |  | inactive: -14.8%
35 | O=C(COC(=O)C1CCC(=O)N1)Nc1cccc([N+](=O)[O-])c1 (configuration not stated) |  | inactive: -8.75%
36 | Oc1ccccc1/C=N/NC(=S)NCCc1ccccc1 | inconclusive [inhibitor, single point] | 
37 | O=C(c1ccccc1)C1CCN(CC(=O)N2CCN(c3ccccc3)CC2)CC1 | inconclusive [inhibitor, single point] | 
38 | COc1ccc([C@@H]2CC=C(C(=O)O)[C@H](c3cccc(Cl)c3)N2S(=O)(=O)c2ccc(Cl)cc2)cc1 | inconclusive [inhibitor, single point] | 
39 | CCOc1ccccc1CNC(=O)CCCN1C(=O)COc2ccc(C)cc21 | inconclusive [inhibitor, single point] | 
40 | COc1cccc2cc(C(=O)NCCc3c[nH]c4ccccc34)c(=O)oc12 | inconclusive [inhibitor, single point] | 
41 | COc1cc2c3nnc(-c4ccc(F)cc4)c-3cn(Cc3cccc(F)c3)c2cc1OC | active: 2.31 µM | 
42 | N#Cc1cccc(Nc2c3c(nc4ccccc24)CCC3)c1 | inconclusive [inhibitor, single point] | 
